# Test results from publication PMC3065485.
# These are yes or no findings as the source states them, for the method shown. In cells and extracts the contact can be indirect. Some results given as binding are weak or reduced against the parent protein; the word gives no strength. Where a sequence is shown, tags or fusion partners need not be part of it.
# T1: Caf1-Myc (S. cerevisiae) (UniProt P39008)
# T1 sequence: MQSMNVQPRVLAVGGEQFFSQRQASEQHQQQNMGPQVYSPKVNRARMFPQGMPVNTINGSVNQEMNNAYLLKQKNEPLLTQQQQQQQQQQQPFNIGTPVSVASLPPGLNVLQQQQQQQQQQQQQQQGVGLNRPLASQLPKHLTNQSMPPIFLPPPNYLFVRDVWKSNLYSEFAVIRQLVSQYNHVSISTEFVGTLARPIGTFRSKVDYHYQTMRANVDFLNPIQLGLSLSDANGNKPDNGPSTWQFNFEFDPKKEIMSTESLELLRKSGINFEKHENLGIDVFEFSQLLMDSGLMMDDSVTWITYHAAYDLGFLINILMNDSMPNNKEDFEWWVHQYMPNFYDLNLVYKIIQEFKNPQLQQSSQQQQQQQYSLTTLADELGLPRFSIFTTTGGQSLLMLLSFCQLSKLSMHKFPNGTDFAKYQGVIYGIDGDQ
# T2: Not2-Myc (S. cerevisiae) (UniProt P06100)
# T2 sequence: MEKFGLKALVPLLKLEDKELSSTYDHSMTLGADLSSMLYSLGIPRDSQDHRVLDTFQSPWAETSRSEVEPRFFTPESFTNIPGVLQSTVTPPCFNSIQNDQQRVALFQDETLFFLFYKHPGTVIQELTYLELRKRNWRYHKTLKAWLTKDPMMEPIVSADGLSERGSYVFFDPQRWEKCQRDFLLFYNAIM
# T3: Not5-Myc (S. cerevisiae) (UniProt Q12514)
# T3 sequence: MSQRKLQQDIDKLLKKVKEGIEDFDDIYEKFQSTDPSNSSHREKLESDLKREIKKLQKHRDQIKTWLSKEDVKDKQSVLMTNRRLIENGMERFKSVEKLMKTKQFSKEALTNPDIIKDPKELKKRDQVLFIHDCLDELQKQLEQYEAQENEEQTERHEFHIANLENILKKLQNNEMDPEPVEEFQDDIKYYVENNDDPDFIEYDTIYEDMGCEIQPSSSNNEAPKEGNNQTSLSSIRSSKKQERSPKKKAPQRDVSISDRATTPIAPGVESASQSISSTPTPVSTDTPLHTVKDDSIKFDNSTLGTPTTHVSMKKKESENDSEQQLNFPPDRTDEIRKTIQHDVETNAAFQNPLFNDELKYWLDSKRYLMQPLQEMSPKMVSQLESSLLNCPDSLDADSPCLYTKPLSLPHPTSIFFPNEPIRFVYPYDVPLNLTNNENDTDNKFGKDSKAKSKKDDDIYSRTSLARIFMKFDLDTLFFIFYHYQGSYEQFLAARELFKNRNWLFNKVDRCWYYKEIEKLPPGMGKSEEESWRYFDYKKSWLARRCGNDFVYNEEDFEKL
# T4: Ccr4-Myc (S. cerevisiae) (UniProt P31384)
# T4 sequence: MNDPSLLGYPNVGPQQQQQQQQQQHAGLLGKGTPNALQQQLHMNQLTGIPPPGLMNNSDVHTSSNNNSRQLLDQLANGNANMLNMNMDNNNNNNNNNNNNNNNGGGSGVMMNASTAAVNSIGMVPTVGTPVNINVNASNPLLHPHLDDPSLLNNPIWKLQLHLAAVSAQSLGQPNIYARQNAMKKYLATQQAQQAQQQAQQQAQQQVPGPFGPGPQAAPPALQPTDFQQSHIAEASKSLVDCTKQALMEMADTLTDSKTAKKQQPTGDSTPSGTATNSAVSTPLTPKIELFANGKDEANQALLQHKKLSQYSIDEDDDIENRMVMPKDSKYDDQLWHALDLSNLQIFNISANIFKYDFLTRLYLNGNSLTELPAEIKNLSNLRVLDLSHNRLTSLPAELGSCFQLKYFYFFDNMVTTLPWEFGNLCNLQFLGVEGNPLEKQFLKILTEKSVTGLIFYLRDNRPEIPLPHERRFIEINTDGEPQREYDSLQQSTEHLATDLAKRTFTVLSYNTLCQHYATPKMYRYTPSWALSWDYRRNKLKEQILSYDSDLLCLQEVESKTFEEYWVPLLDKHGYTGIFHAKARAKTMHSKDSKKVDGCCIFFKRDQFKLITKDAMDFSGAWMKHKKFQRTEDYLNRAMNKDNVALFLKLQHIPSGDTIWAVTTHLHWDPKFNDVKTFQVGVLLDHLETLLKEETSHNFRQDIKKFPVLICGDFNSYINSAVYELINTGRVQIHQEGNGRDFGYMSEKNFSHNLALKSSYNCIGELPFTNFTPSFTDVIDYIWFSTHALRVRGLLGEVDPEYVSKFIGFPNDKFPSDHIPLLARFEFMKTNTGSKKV
# Experiments:
# Assay in all cases: co-IP; α-Myc immunoprecipitation of the Myc-tagged Ccr4-Not subunit from 1 mg yeast whole-cell extract (10 mM Tris pH 8.0, 150 mM NaCl, 0.1% Nonidet P-40, 10% glycerol, 1 mM DTT), 4°C, Protein A agarose; α-HA immunoblot for Hmt1
# [1] = target: T1, Caf1-Myc (S. cerevisiae)
# [2] = target: T2, Not2-Myc (S. cerevisiae)
# [3] = target: T3, Not5-Myc (S. cerevisiae)
# [4] = target: T4, Ccr4-Myc (S. cerevisiae)
binder,measurement,setting,value
"Hmt1-HA (enzyme, UniProt P38074 1-348) MSKTAVKDSATEKTKLSESEQHYFNSYDHYGIHEEMLQDTVRTLSYRNAIIQNKDLFKDKIVLDVGCGTGILSMFAAKHGAKHVIGVDMSSIIEMAKELVELNGFSDKITLLRGKLEDVHLPFPKVDIIISEWMGYFLLYESMMDTVLYARDHYLVEGGLIFPDKCSIHLAGLEDSQYKDEKLNYWQDVYGFDYSPFVPLVLHEPIVDTVERNNVNTTSDKLIEFDLNTVKISDLAFKSNFKLTAKRQDMINGIVTWFDIVFPAPKGKRPVEFSTGPHAPYTHWKQTIFYFPDDLDAETGDTIEGELVCSPNEKNNRDLNIKISYKFESNGIDGNSRSRKNEGSYLMH",binding,[1],binds
same,binding,[2],binds weakly
same,binding,[3],no binding
same,binding,[4],binds
